Test results reported in PubChem BioAssay AID1240 (Sanford-Burnham Center for Chemical Genomics, 2008).
The whole screen tested about 50,000 compounds, of which about 800 (1.6%) showed an effect of 50% or more. Some of the results follow.

Biological target: Bcl-2-like protein 10 (Homo sapiens) (UniProt Q9HD36)
Test: TR3 peptide-Bcl-B binding displacers, biochemical primary FP assay, phenotype converters (AID 1240);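 further: 0% = Bcl-B with tracer peptide and DMSO and 100% = tracer peptide lacking Bcl-B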
Conditions: GST-Bcl-B / FITC-TR3 peptide fluorescence polarization; stronger effect = higher value; compound at 3.75 mg/L

Chain of UniProt Q9HD36 (Q9HD36 whole entry, looked up): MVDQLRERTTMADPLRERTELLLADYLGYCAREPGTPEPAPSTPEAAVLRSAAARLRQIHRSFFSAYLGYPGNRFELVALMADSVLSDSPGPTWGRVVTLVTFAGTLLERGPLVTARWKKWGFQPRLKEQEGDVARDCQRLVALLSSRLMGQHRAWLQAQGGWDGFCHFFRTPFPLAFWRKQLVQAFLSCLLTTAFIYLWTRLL

SMILES | displacement [%]
COc1ccc(-c2cc(-c3ccccc3)nc(N/N=C/c3cccnc3)n2)cc1 | -15.9
O=C1C2C3C=CC(C3)C2C(=O)N1c1ccc(Cl)cc1[N+](=O)[O-] (stereo not given) | -22.2
COc1ccc(N=C(Sc2nc3ccccc3o2)c2ccc([N+](=O)[O-])cc2[N+](=O)[O-])cc1 | -0.2
COc1ccc(CNC(=O)N2CCOCC2)cc1 | 9.1
CCCN1C(=O)c2ccccc2NC1c1ccc(F)cc1 (stereo not given) | 13.2
COC(=O)CN(c1ccccc1Br)S(C)(=O)=O | 17
Cc1ccc(N2C(=O)/C(=C\c3ccc(-c4ccc(Cl)c(C(=O)O)c4)o3)C(=O)NC2=S)cc1 | 10.8
O=C(Cc1ccc(Br)cc1)Nc1ccccc1C(F)(F)F | 5
O=C1NC(=Nc2cccc(Cl)c2Cl)S/C1=C\c1ccco1 | 42.1
Nc1nnc2c(n1)-c1ccccc1C2=O | 1
CC(=O)C1=C(O)C(=O)N(CCN(C)C)C1c1ccc(C(C)C)cc1 (stereo not given) | -6.6
C/C(=N\N1CCN(Cc2ccccc2)CC1)c1ccco1 | -10.8
O=C(CSCC(=O)Nc1ccccc1)NCc1ccccc1 | -1.3
Cc1ccccc1OCC(=O)N/N=C/c1ccc[nH]1 | -4.5
CCN1C(=O)/C(=C2\SC(=S)N(c3cc(OC)ccc3OC)C2=O)c2ccccc21 | 13
COC(=O)C1=C(O)/C(=C/c2ccc(OCC(=O)NC(C)C)cc2)N=C1C | 9.6
CC1(C)Cc2ccccc2C2=C(C(=O)N3CCOCC3)C(=O)C(=O)N21 | 6.6
O=C(NCc1ccc(Cl)cc1Cl)C(=O)N/N=C/c1ccccc1F | 7.6
N#CC(C#N)=CN1CCCc2ccccc21 | -7.9
O=c1nc(/C=C/c2ccc(Cl)cc2)cc(C(F)(F)F)[nH]1 | 4.5
COC(=O)c1c(NC(=O)C2C3CCC(C3)C2C(=O)O)sc(C)c1-c1cc(C)ccc1C (stereo not given) | 3
Cc1ccc(-n2nc(C)c(-c3cccc([N+](=O)[O-])c3)c2C)cc1C | 13.6

SMILES | displacement [%]
COc1ccc(C=C2C(=O)N(C)C(=O)N(C)C2=O)cc1O | -7.9
CN(C)c1ccc(/C=C/C=N/N=c2\sc3ccccc3n2C)cc1 | -7.1
Cc1oc2ccc(NS(=O)(=O)c3ccccc3)cc2c1C(=O)OC(C)C | 7.6
CCN(CC)c1ccc(/C=c2\sc3nc4ccccc4n3c2=O)c(OC)c1 | 37.7
[O-]/[N+](=C\c1ccc(F)cc1)c1ccccc1 | 14.4
Cc1ccc(NC(=O)/C(=C\c2ccc(C)o2)NC(=O)c2ccccc2I)cc1 | -2.1
C=CCC1S/C(=N\N=C\c2ccc(Cl)cc2)NC1=O (stereo not given) | -3.2
O=C(COc1ccccc1)Nc1ccc(-c2nc3ccccc3s2)c(O)c1 | -2.9
CCOc1ccc(C(NC(=O)c2ccc(OC)cc2)c2ccc(OC)cc2)cc1 (stereo not given) | -2.3
COc1ccc(N2C(=O)NC(=O)/C(=C/c3ccccc3O)C2=O)cc1 | -2.5
O=C1C(=O)N(c2cccc(Cl)c2)C(c2ccc([N+](=O)[O-])cc2)/C1=C(\O)c1ccccc1 (stereo not given) | 13.3
Cc1sc(NC(=O)COc2ccccc2)c(C#N)c1C | 16.7
CCNC(=S)NC(C(=O)OC)C12CC3CC(CC(C3)C1)C2 (stereo not given) | -12.4
CC1(C)CC(NC(=O)CNC2CCCCC2)CC(C)(C)N1 | 4.2
O=C(CC(c1ccccc1)c1ccccc1)Nc1ncccc1Cl | -12.3
O=C(NCc1ccco1)C1CC2CCC1C2 (stereo not given) | 5.8
NNC(=O)c1cc(-c2ccc3c4c(cccc24)CC3)n[nH]1 | 5.3
C=CCc1ccccc1OCCOc1ccc(/C=N/n2cnnc2)cc1OC | 11.4
O=C(N/N=C/c1cccs1)c1sc2cc(Cl)ccc2c1Cl | 7.2
COc1ccc(S(=O)(=O)N(CC(=O)Nc2ccc(Br)cc2)c2ccc(C)cc2)cc1OC | 8.5
Cc1cc(NC(=O)CCN2C(=O)/C(=C/c3ccccc3)SC2=S)no1 | 5.3
O=C(NN1CCOCC1)c1cccc(F)c1 | 8.1

SMILES | displacement [%]
Cc1ccc(Br)cc1S(=O)(=O)NCc1ccco1 | 13.2
CC(C)OCC(O)CNc1ccccc1 (stereo not given) | 9
Cc1ccc(SCCNS(=O)(=O)c2ccc(C)c([N+](=O)[O-])c2)cc1 | -4.4
COc1ccccc1/C=c1/sc2nc(-c3ccc(Cl)cc3Cl)nn2c1=O | 7.3
COc1ccc(OC)c(NC(=O)C2C3C4CCC(C4)C23)c1 (stereo not given) | -45.1
COc1ccc(CCC(=O)NCCc2ccc(OC)c(OC)c2)cc1 | -2.2
O=C(NN1C(=O)/C(=C/c2ccc(O)cc2)SC1=S)c1ccccc1Br | -72.2
O=C1OC(OCc2ccccc2)(c2ccccc2)c2ccccc21 (stereo not given) | 6.4
O=c1c2ccccc2nc(-c2ccccc2)n1/N=C/c1cccs1 | 6.3
O=C(COc1ccc(Cl)cc1Cl)Nc1ccc(O)c(-c2nc3ccccc3s2)c1 | 14.9
Cc1ccc(NC(=O)c2ccn(C(=O)c3cccc(I)c3)n2)c(C)c1 | -1.6
CCOc1ccc(-c2nn(-c3ccccc3)cc2/C=C2\SC(=S)N(CCOC)C2=O)cc1 | 26.7
CC(/C=C/c1ccc2c(c1)OCO2)=N\NC(=O)c1cccc([N+](=O)[O-])c1 | 1.2
O=S(=O)(Oc1ccccc1)c1ccc2c(c1)Cc1cc(S(=O)(=O)Oc3ccccc3)ccc1-2 | 7.9
COC(=O)c1c(N)sc(C)c1-c1ccc(OC)cc1 | 5
COc1ccc(C2C(C(C)=O)C(=O)CC(C)(O)C2C(C)=O)c(OC)c1 (stereo not given) | 10.5
O=C1CSC(=O)N1c1ccc([N+](=O)[O-])cc1 | 1.2
C=CCc1c(C)nc2cc(-c3cccc(F)c3)[nH]n2c1=O | 10.7
COC(=O)c1ccccc1NC(=O)c1ccccc1[N+](=O)[O-] | 14.8
COc1ccccc1NC1=C(Cl)C(=O)N(c2ccc(C)cc2)C1=O | -3.9
COc1ccc(OC(C)C(=O)Nc2ccccc2F)cc1 (stereo not given) | 13.6
CCN(CC)c1ccc(NC(=O)c2cccc(OC)c2)cc1 | 11.2

SMILES | displacement [%]
CCOC(=O)c1ccc(N2NC(=O)/C(=C/c3ccc(C=O)cc3)C2=O)cc1 | -8.8
CC(O)C(=O)N/N=C/c1ccc(F)cc1 (stereo not given) | 14.4
Cc1cc(C)n(C(=O)CNC(=O)c2ccco2)n1 | 16.7
CCOC(=O)c1c(NC(=O)c2ccc(C)cc2)sc2c1CCC2 | 4.5
CCOc1cc(C2C(C(=O)OCCOC)=C(C)NC3=C2C(=O)CC(C)(C)C3)ccc1OC(C)=O (stereo not given) | -6
O=C(COc1ccccc1[N+](=O)[O-])Nc1cc(-c2nc3ccccc3o2)ccc1Cl | 91.6
O=C(Nc1cccc(C(=O)Nc2cccc(Cl)c2)c1)c1ccc([N+](=O)[O-])cc1 | -4.6
CCN(CC)CCn1c2ccccc2n2cc(-c3ccc(C)cc3)nc12 | -16.1
COc1ccc(OC)c(/C=C2/C(=O)N(c3ccc(C)cc3)N=C2C)c1 | -5.7
CCSCCOC(=O)C1=C(C)NC2=C(C(=O)CCC2)C1c1ccc(OC)c(OCc2ccccc2)c1 (stereo not given) | 0
COC(=O)c1ccccc1NCn1nc(-c2ccc(Cl)cc2Cl)oc1=S | -14.9
CNc1c([N+](=O)[O-])cnc2c1c(=N)nc1ccccn12 | -9.6
Cc1cc(C)c(OCC(=O)Nc2cccc3ccccc23)c(C)c1 | 15.9
COC(=O)c1ccc(C2Nc3ccccc3-c3nnc(SC)nc3O2)cc1 (stereo not given) | 18.4
COCCN1C(=O)/C(=C\c2ccc(F)cc2)C(C(=O)OC)=C1C | 7.3
CC(C)(C)NCCOc1cccc(Cl)c1Cl | -15
COc1ccc(C2NC(=S)NC(C)=C2C(=O)Nc2ccc(C)cc2)cc1OC (stereo not given) | 4.2
CC1(C)CC(=O)C2=C(C1)Nc1ccccc1N(C(=O)Cc1ccccc1)C2c1cccc(Cl)c1 (stereo not given) | -18.9
COC(=O)Cn1c2c(c3cc(C)ccc31)CCCC2=NCc1ccccc1 | -2.1
O=C(/C=C/c1ccco1)Nc1ccc(NC(=O)c2ccc(Cl)cc2Cl)cc1 | 10
O=C1CN(S(=O)(=O)c2ccc3c(c2)C(=O)c2ccccc2-3)CC(=O)N1 | -3.3
CCOC(=O)CSc1nc2sc3c(c2c(=O)n1-c1ccc(OC)cc1)CCc1ccccc1-3 | -6.4

SMILES | displacement [%]
O=C1Nc2ccc(Br)cc2/C1=C/c1ccc2ccccc2n1 | -1.1
Cc1ccc(-c2nc(N/N=C/c3ccc([N+](=O)[O-])cc3)c3ccccc3n2)cc1 | 3.5
CCCCn1c(-c2ccccc2)nc2ccccc21 | -4.2
O=S(=O)(NCc1ccc(F)cc1)c1ccc(Cl)cc1 | 2.1
Brc1ccc(NCn2nnc3ccccc32)cc1 | 4.4
CCOC(=O)/C(C#N)=C\c1c(C)cc(C)c(COC)c1C | 13.8
COC(=O)c1sc(NC(=O)c2ccccc2F)c(C(=O)OC)c1C | 11
COC(=O)C1=C(O)/C(=C/c2ccc(OCC(=O)Nc3ccccc3)cc2)N=C1C | 15.1
C/C(=N\NC(=O)COc1ccc(Cl)cc1Cl)c1ccc([N+](=O)[O-])cc1 | 4.7
CCOc1ccccc1NC(=O)CN(c1cccc(OC)c1)S(=O)(=O)c1ccccc1 | 2.2
CCOC(=O)C1=CN(c2ccc(OCC)cc2)C=C(C(=O)OCC)C1c1ccc2c(c1)OCO2 | 1.2
CCOc1ccc(N(CC(=O)NCc2ccco2)S(C)(=O)=O)cc1 | 11.1
Cc1ccc(OCCCCN2CCC(C)CC2)cc1 | -3
Cc1cc(Cl)cc(Cl)c1OCCOCCN1CCN(C)CC1 | -13
CN1CCN(C(=O)c2ccc(Cl)c(Cl)c2)CC1 | 10.3
COc1ccc(OC)c(/C=C2\SC(N3CCOCC3)=NC2=O)c1 | -12.6
COc1cc(NC(=O)COc2ccc(Cl)cc2Cl)c2ncccc2c1 | -9.3
CCOP(=O)(OCC)c1nc2c(C)cccc2c(Nc2ccccc2C)c1Cl | -8.7
COc1cc(/C=C(\C#N)c2ccc([N+](=O)[O-])cc2)ccc1O | 2.6
CC(C)OCCCNC(=O)C(=O)NCCc1ccc(Cl)cc1 | -0.8
O=C(NC(=S)Nc1cc([N+](=O)[O-])cc(Cl)c1O)c1cccnc1 | 12.7
Cc1ccc(C(=O)O)cc1-n1c(C)ccc1C | 83.2
